The campaign covered roughly 390,000 compounds. About 1,400 (0.36%) were called active. Inconclusive means that the source gave no clear call. Such entries were picked first, then a sample of the others. Calls follow the shape of the dose curve; as a rule, active = well fitted inhibition curve with a large enough effect; inconclusive = small, poorly fitted or top-dose-only effect; inactive = no such curve, though single readings can be large or run the other way. Potencies beside an inconclusive call are fits to weak or partial responses and may not hold up.
Biological target: Flap endonuclease 1 (Homo sapiens) (UniProt P39748)
UniProt P39748, sequence (P39748 whole entry, looked up): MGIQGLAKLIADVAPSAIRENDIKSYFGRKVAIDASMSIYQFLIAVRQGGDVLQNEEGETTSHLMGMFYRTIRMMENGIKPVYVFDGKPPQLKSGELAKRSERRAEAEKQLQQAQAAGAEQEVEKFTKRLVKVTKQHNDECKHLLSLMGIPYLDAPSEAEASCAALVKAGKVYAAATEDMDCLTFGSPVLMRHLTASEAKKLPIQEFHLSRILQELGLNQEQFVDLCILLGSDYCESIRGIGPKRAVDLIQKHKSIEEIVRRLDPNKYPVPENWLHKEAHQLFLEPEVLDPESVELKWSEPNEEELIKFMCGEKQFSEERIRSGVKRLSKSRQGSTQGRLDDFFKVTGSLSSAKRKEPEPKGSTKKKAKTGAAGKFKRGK
Assay: qHTS Assay for the Inhibitors of Human Flap endonuclease 1 (FEN1). Also: nearly all actives have a fitted effect of over 65% in size.
Details: Recombinant FEN1 flap cleavage, fluorescence, 15 min; series mostly up to 114 µM
Summary of the method: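 With each library titrated from low to high concentration, compounds met 10 nM FEN1 for 15 min at room temperature before 50 nM substrate was added; readings at 0 and 15 min fed four-parameter Hill curve fits.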
Potency is read from the fitted curve at half-maximal effect; tags tell the direction and shape of the fitted curve.

Question: With `CC1CC(C)CN(c2nc(NCc3ccco3)nc(N)c2[N+](=O)[O-])C1` (stereo not drawn) as the compound, how does the Potency read?
Answer: The Potency was inconclusive: 89.1 µM [inhibitor, partial curve, poor fit].

Question: How did the Potency turn out when `COc1ccc(Nc2cc(Sc3ccc(OC)cc3)ncn2)cc1` was run?
Answer: The Potency was inconclusive: 50.1 µM [inhibitor, partial curve].

Question: With `CC(=O)Nc1c(Cl)cc2c(c1Cl)Cc1cc(C#N)ccc1-2` as the compound, how does the Potency read?
Answer: The Potency was inconclusive: 89.1 µM [inhibitor, single point].

Question: For `CCCCCCCCCCS(=O)(=O)N/N=C/c1ccccc1OC`, which Potency is on record?
Answer: The Potency was inconclusive: 44.7 µM [inhibitor, partial curve, poor fit].

Question: With `CC(=O)Oc1c(C(=O)c2nnc(C)o2)c(=O)n(Cc2ccccc2)c2ccccc12` as the compound, how does the Potency read?
Answer: The Potency was inconclusive: 44.7 µM [inhibitor, partial curve].

Question: For `Cc1ccc(-c2n[nH]c(=S)n2/N=C/C=C/c2ccccc2[N+](=O)[O-])cc1`, which Potency is on record?
Answer: Its Potency is inconclusive: 50.1 µM [inhibitor, partial curve, poor fit].

Question: For `Cc1ccc(N2CC(C)Cn3c2nc2c3c(=O)n(CC(=O)O)c(=O)n2C)cc1` (stereo not drawn), which Potency is on record?
Answer: Its Potency is “inactive”.

Question: `Cc1cc(C)cc(-n2ccn(CC(=O)Nc3ccccc3C(F)(F)F)c(=O)c2=O)c1` was tested. Which Potency did it give?
Answer: Its Potency is “inactive”.

Question: Which Potency does the source give for `CC(=O)c1ccc(NC(=S)Nc2ccc(Br)c(Cl)c2)cc1` here?
Answer: The Potency was inconclusive: 89.1 µM [inhibitor, single point].

Question: How did the Potency turn out when `CCOC(=O)C(NC(=O)c1cccc(Cl)c1)(OCc1ccccc1)C(F)(F)F` (stereo not drawn) was run?
Answer: The Potency was inconclusive: 89.1 µM [inhibitor, partial curve, poor fit].

Question: How did the Potency turn out when `O=C(Nc1sc(-c2ccccc2)cc1C(=O)O)c1ccccc1` was run?
Answer: The Potency was inconclusive: 89.1 µM [inhibitor, single point].

Question: With `O=C(Nc1ccc(C(=O)O)cc1)/C(=C\c1ccc2c(c1)OCO2)NC(=O)c1ccccc1` as the compound, how does the Potency read?
Answer: The Potency was “inactive”.

Question: Which Potency does the source give for `O=Cc1cc(N=Nc2ccc(S(=O)(=O)O)cc2)ccc1O` here?
Answer: The Potency was “inactive”.

Question: Which Potency does the source give for `Clc1ccc(-c2nc3cnccn3c2Nc2ccc3c(c2)OCO3)cc1` here?
Answer: The Potency was inconclusive: 31.6 µM [inhibitor, single point].

Question: With `Cc1cc(/C=C2\SC(=S)NC2=O)c(C)n1C` as the compound, how does the Potency read?
Answer: The Potency was inconclusive: 39.8 µM [inhibitor, partial curve].

Question: How did the Potency turn out when `CC(C)CCn1c(=O)c2cccnc2n(CC(=O)Nc2ccc(F)cc2)c1=O` was run?
Answer: The Potency was “inactive”.

Question: For `Cc1cccc(C)c1Nc1c(-c2ccccc2F)nc2cccc(C)n12`, which Potency is on record?
Answer: The Potency was inconclusive: 44.7 µM [inhibitor, partial curve, poor fit].

Question: `Clc1cccc(/C=N/Nc2ncnc3ccccc23)c1` was tested. Which Potency did it give?
Answer: Its Potency is inconclusive: 89.1 µM [inhibitor, partial curve, poor fit].
